According to patent US4478826A, “Renin inhibitory peptides” (Merck & Co., Inc., priority 1982, dated 1984):
“And” between values parts separate entries of the source, which are not always exact repeats. Identical values can stand only once. At least one peptide structure holds a part that was inferred or is arguable (an end, a ring closure or a residue). Square brackets hold non-standard residues; d marks the D form. Peptide text beside a SMILES is read from it. * marks the point of attachment. Phe(4-I) = N[C@@H](Cc1ccc(I)cc1)C(=O)O; Phe(2-I) = N[C@@H](Cc1ccccc1I)C(=O)O; Sta = CC(C)C[C@H](N)[C@@H](O)CC(=O)O; Isovaleryl = CC(C)CC(=O)*; Isobutyryl = CC(C)C(=O)*; Boc = CC(C)(C)OC(=O)*; Sar = CNCC(=O)O

Key:
[1] = system: hog kidney renin; test: Hog renin inhibition assay; assay type: biochemical; details: pH 7.3, concentration for 50% inhibition of renin activity, read-out: I50
[2] = system: nephrectomized rats; details: after injection of hog renin into nephrectomized rats; Gross et al., Science 175:656, 1971; cited from earlier work

SMILES | IC50 [1] | blood pressure in vivo [2]
CC(=O)N1CCC[C@H]1C(=O)N[C@@H](Cc1ccccc1)C(=O)N[C@@H](Cc1c[nH]cn1)C(=O)N[C@@H](CC(C)C)[C@@H](O)CC(=O)N[C@@H](CC(C)C)C(=O)N[C@@H](Cc1ccccc1)C(N)=O [Acetyl--Pro--Phe--His--Sta--Leu--Phe--NH2] (Ac-PFH[Sta]LF-NH2) | 0.037 µM | 
COC(=O)[C@H](CC(C)C)NC(=O)[C@H](CC(C)C)NC(=O)C[C@H](O)[C@H](CC(C)C)NC(=O)[C@H](Cc1c[nH]cn1)NC(=O)[C@H](Cc1ccccc1)NC(=O)[C@@H]1CCCN1C(=O)[C@H](Cc1c[nH]cn1)NC(=O)OC(C)(C)C [BOC--His--Pro--Phe--His--Sta--Leu--Leu--OCH3] (Boc-HPFH[Sta]LL-OMe) | 0.023 µM | 
CC(C)C[C@H](NC(=O)C[C@H](O)[C@H](CC(C)C)NC(=O)[C@H](Cc1c[nH]cn1)NC(=O)[C@H](Cc1ccccc1)NC(=O)[C@@H]1CCCN1C(=O)[C@H](Cc1c[nH]cn1)NC(=O)OC(C)(C)C)C(=O)N[C@@H](Cc1ccc(O)cc1)C(N)=O [BOC--His--Pro--Phe--His--Sta--Leu--Tyr--NH2] (Boc-HPFH[Sta]LY-NH2) | 0.026 µM | 
CC(C)C[C@H](NC(=O)C[C@H](O)[C@H](CC(C)C)NC(=O)[C@H](Cc1ccccc1)NC(=O)[C@H](Cc1ccccc1)NC(=O)[C@@H]1CCCN1C(=O)[C@H](Cc1c[nH]cn1)NC(=O)OC(C)(C)C)C(=O)N[C@@H](Cc1ccccc1)C(N)=O [BOC--His--Pro--Phe--Phe--Sta--Leu--Phe--NH2] (Boc-HPFF[Sta]LF-NH2) | 0.02 µM | 
CC(C)C[C@H](NC(=O)C[C@H](O)[C@H](CC(C)C)NC(=O)[C@H](Cc1ccc(I)cc1)NC(=O)[C@H](Cc1ccccc1)NC(=O)[C@@H]1CCCN1C(=O)[C@H](Cc1c[nH]cn1)NC(=O)OC(C)(C)C)C(=O)N[C@@H](Cc1ccccc1)C(N)=O [BOC--His--Pro--Phe--p-I--Phe--Sta--Leu--Phe--NH2] (Boc-HPF[Phe(4-I)][Sta]LF-NH2) | 0.0081 µM | 
CC(C)C[C@H](NC(=O)C[C@H](O)[C@H](CC(C)C)NC(=O)[C@H](Cc1c[nH]cn1)NC(=O)[C@H](Cc1ccccc1I)NC(=O)[C@@H]1CCCN1C(=O)[C@H](Cc1c[nH]cn1)NC(=O)OC(C)(C)C)C(=O)N[C@@H](Cc1ccccc1)C(N)=O [BOC--His--Pro--o-I--Phe--His--Sta--Leu--Phe--NH2] (Boc-HP[Phe(2-I)]H[Sta]LF-NH2) | 0.042 µM | 
CC(C)C[C@H](NC(=O)C[C@H](O)[C@H](CC(C)C)NC(=O)[C@H](Cc1c[nH]cn1)NC(=O)[C@H](Cc1ccccc1)NC(=O)[C@@H]1CCCN1C(=O)[C@H](N)Cc1c[nH]cn1)C(=O)N[C@@H](Cc1ccccc1)C(N)=O [D-His-- Pro--Phe--His-- Sta--Leu--Phe--NH2] (H-[dH]PFH[Sta]LF-NH2) | 0.049 µM | 
CC(C)C[C@H](NC(=O)C[C@H](O)[C@H](CC(C)C)NC(=O)[C@H](Cc1c[nH]cn1)NC(=O)[C@H](Cc1ccccc1)NC(=O)[C@@H]1CCCN1C(=O)[C@@H](N)Cc1c[nH]cn1)C(=O)N[C@@H](Cc1ccccc1)C(N)=O [H --His--Pro--Phe--His--Sta--Leu--Phe--NH2] (H-HPFH[Sta]LF-NH2) | 0.02 µM | 
CC(C)C[C@H](NC(=O)[C@H](Cc1c[nH]cn1)NC(=O)[C@H](Cc1ccccc1)NC(=O)[C@@H]1CCCN1C(=O)[C@H](Cc1c[nH]cn1)NC(=O)C(C)C)[C@@H](O)CC(=O)N[C@@H](C)C(=O)N[C@@H](Cc1ccccc1)C(N)=O [IBU--His--Pro--Phe--His--Sta--Ala--Phe--NH2] (Isobutyryl-HPFH[Sta]AF-NH2) | 0.037 µM and 0.02 µM | 
CC(C)C[C@H](NC(=O)C[C@H](O)[C@H](CC(C)C)NC(=O)[C@H](Cc1c[nH]cn1)NC(=O)[C@H](Cc1ccccc1)NC(=O)[C@@H]1CCCN1C(=O)[C@H](Cc1c[nH]cn1)NC(=O)C(C)C)C(=O)N[C@@H](Cc1ccccc1)C(=O)N[C@@H](CCCCN)C(N)=O [IBU--His--Pro--Phe--His--Sta--Leu--Phe--Lys--NH2] (Isobutyryl-HPFH[Sta]LFK-NH2) | 0.023 µM | 
CC(C)CC(=O)N[C@@H](Cc1c[nH]cn1)C(=O)N1CCC[C@@H]1C(=O)N[C@@H](Cc1ccccc1)C(=O)N[C@@H](Cc1c[nH]cn1)C(=O)N[C@@H](CC(C)C)[C@@H](O)CC(=O)N[C@@H](CC(C)C)C(=O)N[C@@H](Cc1ccccc1)C(N)=O [IVA--His--D--Pro--Phe--His--Sta--Leu--Phe--NH2] (Isovaleryl-H[dP]FH[Sta]LF-NH2) | 0.058 µM | 
CC(C)CC(=O)N[C@@H](Cc1c[nH]cn1)C(=O)N1CCC[C@H]1C(=O)N[C@@H](Cc1ccccc1)C(=O)N[C@@H](Cc1c[nH]cn1)C(=O)N[C@@H](CC(C)C)[C@@H](O)CC(=O)N[C@@H](CC(C)C)C(=O)N[C@H](C(=O)N[C@@H](Cc1ccccc1)C(N)=O)C(C)C [IVA--His--Pro--Phe--His--Sta--Leu--Val--Phe--NH2] (Isovaleryl-HPFH[Sta]LVF-NH2) | 0.046 µM | 
CC(C)CC(=O)N[C@@H](Cc1c[nH]cn1)C(=O)N1CCC[C@H]1C(=O)N[C@@H](Cc1ccccc1)C(=O)N[C@@H](Cc1c[nH]cn1)C(=O)N[C@@H](CC(C)C)[C@@H](O)CC(=O)N[C@@H](CC(C)C)C(=O)N[C@@H](Cc1ccccc1)C(N)=O [N-Isovaleryl-L-histidyl-L-prolyl-L-phenylalanyl-L-histidyl-(3S,4S)-statyl-L-leucyl-L-phenylalanine amide] (Isovaleryl-HPFH[Sta]LF-NH2) | 0.03 µM | 
CC(C)CC(=O)N[C@H](C(=O)N[C@H](C(=O)N[C@@H](CC(C)C)[C@@H](O)CC(=O)N[C@@H](C)C(=O)N[C@@H](CC(C)C)[C@@H](O)CC(=O)O)C(C)C)C(C)C [Pepstatin, iso-valeryl-Val-- Val--Sta--Ala--Sta] (Isovaleryl-VV[Sta]A[Sta]-OH) |  | reduce blood pressure in vivo
CNCC(=O)N1CCC[C@H]1C(=O)N[C@@H](Cc1ccccc1)C(=O)N[C@@H](Cc1c[nH]cn1)C(=O)N[C@@H](CC(C)C)[C@@H](O)CC(=O)N[C@@H](CC(C)C)C(=O)N[C@@H](Cc1ccccc1)C(N)=O [Sar--Pro--Phe--His--Sta--Leu--Phe--NH2] (H-[Sar]PFH[Sta]LF-NH2) | 0.066 µM | 
